# Assay results from the BET-seq Pho4 binding data (Le et al. 2018).
# Some of the results follow. These are noisy estimates, calculated here from bound and input reads.
# Molecular target: T1, Pho4 (S. cerevisiae) (UniProt P07270)
# T1 sequence: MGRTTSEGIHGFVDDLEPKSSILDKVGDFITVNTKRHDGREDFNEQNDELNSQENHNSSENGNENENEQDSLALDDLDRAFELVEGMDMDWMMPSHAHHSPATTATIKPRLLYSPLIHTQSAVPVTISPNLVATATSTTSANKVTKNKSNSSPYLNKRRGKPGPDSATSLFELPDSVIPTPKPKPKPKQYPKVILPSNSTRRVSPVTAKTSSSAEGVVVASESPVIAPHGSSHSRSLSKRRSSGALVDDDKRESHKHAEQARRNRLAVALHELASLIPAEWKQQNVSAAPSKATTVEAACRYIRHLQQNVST
# Experiment: relative binding free energy (BET-seq); higher = weaker binding
# Settings: reference: library average
row,Sequence,relative binding free energy [kcal/mol]
1,TTTAGCACGTGCGGGC,-0.07
2,GTTAACACGTGCTTGG,-0.1
3,AGGGCCACGTGAATGT,0.17
4,TGATGCACGTGGGCAT,-0.26
5,TCTGTCACGTGGTATA,-0.01
6,CCAGTCACGTGCGGGG,-0.01
7,CGTGACACGTGAAGTT,0.23
8,GGTTGCACGTGAGTGG,0.25
9,GTTTACACGTGGTGGC,0.15
10,TTGCGCACGTGATTAT,0.06
11,TAGAACACGTGGTCGG,0.15
12,ATGCTCACGTGGTGAG,0.12
13,AGGCTCACGTGTTTAG,0.38
14,GGGTCCACGTGTTATG,0.01
15,TAAATCACGTGATTAT,0.25
16,GATGGCACGTGAGTTT,0.15
17,CACGTCACGTGTTTGT,0.11
18,TGCTGCACGTGGGCGG,-0.23
19,ATATACACGTGTGTGG,0.13
20,TGGCTCACGTGCTGTT,0.18
21,ATATGCACGTGTGAAG,-0.02
22,TTTGTCACGTGTCGCG,0.1
23,TGCGTCACGTGGATTA,0.08
24,TTTTGCACGTGCCATG,0.05
25,GTCATCACGTGTGGCG,0.28
26,TTTCCCACGTGTTTTT,-0.08

row,Sequence,relative binding free energy [kcal/mol]
1,CCGGTCACGTGGGGTT,0.02
2,GTCGGCACGTGTAGTG,0.08
3,TTATTCACGTGTACTG,0.3
4,TTCGGCACGTGGGTTA,-0.11
5,GGTGCCACGTGCATGT,-0.09
6,AGCTGCACGTGGGTCG,-0.16
7,AGGCTCACGTGGCAGG,0.15
8,ATACACACGTGTGGTT,0.19
9,GGTGTCACGTGTCGGG,0.19
10,AGGGTCACGTGACGTA,0.23
11,ATGGGCACGTGTTACT,-0.12
12,AGAAACACGTGTTAGG,0
13,ATTGGCACGTGTTCAT,-0.04
14,TATCTCACGTGGTGAG,0.29
15,CCGGTCACGTGGAGTG,0.01
16,TGACTCACGTGTGTAT,0.32
17,GGGTTCACGTGCGCAT,0.15
18,TCGGTCACGTGGGTGA,0.04
19,GGTATCACGTGGGTAT,0.13
20,TGGCTCACGTGAGTGG,0.41
21,ATGGGCACGTGTTTGC,-0.3
22,GGAGGCACGTGAGTTA,0.13
23,AGTAGCACGTGAGCGG,0
24,TGGCTCACGTGATATG,0.36
25,AGAGCCACGTGAGGGT,0.11
26,GGTACCACGTGTGTAT,0.1

row,Sequence,relative binding free energy [kcal/mol]
1,AAGCGCACGTGTGGGG,-0.14
2,CTTGTCACGTGGCTGG,-0.07
3,CGATTCACGTGGAGTG,0.28
4,TGGCACACGTGTTTGT,0.07
5,AGGGCCACGTGAGGAT,0.15
6,ATTTGCACGTGGGTTA,-0.14
7,GGGATCACGTGTTCGG,0.33
8,TGTCTCACGTGAGTCG,0.46
9,AAGGCCACGTGTGTGT,-0.09
10,AATGACACGTGTGTTT,-0.05
11,GGTCTCACGTGGTTTC,0.16
12,TTCTGCACGTGATAGT,0.01
13,GAGAGCACGTGTTGTG,-0.05
14,ATATTCACGTGCGAGG,0.2
15,AATAGCACGTGGCGGT,-0.06
16,TCATTCACGTGTTGTA,0.24
17,TCATGCACGTGTTGAG,0.01
18,CTAGGCACGTGGGTTG,-0.18
19,GTCATCACGTGTTGTT,0.12
20,TTTTTCACGTGTAGCG,0.11
21,AATTACACGTGAGGGT,0.22
22,TTGTACACGTGGTTGA,0.01
23,GTTCACACGTGTTATG,0.03
24,CTCGTCACGTGTTGTA,0.03
25,CATTTCACGTGTAGGA,0.38
26,ATTGACACGTGGTGCG,-0.09

row,Sequence,relative binding free energy [kcal/mol]
1,TTCAACACGTGTTGAT,0.01
2,GAGGTCACGTGAATGG,0.43
3,AGCCGCACGTGTGTGT,0.02
4,TGAGTCACGTGGTCGC,-0.01
5,GGCAGCACGTGGGGTG,-0.14
6,ACGGGCACGTGGAATT,0.05
7,GGGATCACGTGAGGTC,0.38
8,ATTGGCACGTGGGCCT,-0.27
9,CATGTCACGTGGGATA,0.07
10,CAGAGCACGTGTATGT,-0.07
11,TAACGCACGTGTGGTT,-0.2
12,AGTAGCACGTGTTTTA,-0.04
13,GTATCCACGTGGTATG,-0.01
14,TGGTGCACGTGGATAC,-0.03
15,TGGTTCACGTGAGTCA,0.42
16,TTTTACACGTGAGATG,0.21
17,CTGTTCACGTGTGTGG,0.31
18,CAAGACACGTGTTGGT,0.11
19,TAGGACACGTGGCCGG,-0.01
20,GAATGCACGTGTGCTT,0.16
21,AAATTCACGTGCGGGG,0.29
22,TCGAGCACGTGGCGTG,-0.14
23,ATCATCACGTGAGTAG,0.45
24,TTCCGCACGTGTGTTG,-0.03
25,TTTTGCACGTGAGGGT,0.24
26,AGTGACACGTGAAGTA,0.31

row,Sequence,relative binding free energy [kcal/mol]
1,AGAGTCACGTGTGCAG,0.06
2,TGTATCACGTGGGCTC,0.01
3,GGAGTCACGTGGTGAG,0.09
4,TACGGCACGTGCGGTG,-0.12
5,GTTGTCACGTGGAACT,0.19
6,TGGGACACGTGCTATT,-0.04
7,AACAGCACGTGGGTTT,-0.15
8,GTGATCACGTGAGTGT,0.31
9,GGTTTCACGTGATTAG,0.38
10,GTTACCACGTGTGTGA,0.07
11,TTGTTCACGTGAAAGA,0.51
12,ATAGCCACGTGTGTTG,-0.09
13,TGCTTCACGTGGGTGA,0.13
14,AATGTCACGTGTCGTC,0.22
15,CTGGGCACGTGTGTAT,0.05
16,GGGTGCACGTGATATG,0.15
17,GCCGTCACGTGGGGCT,0.03
18,TGTGACACGTGTGGCG,-0.01
19,GGCATCACGTGAGGTT,0.44
20,TAAGGCACGTGGTGTA,-0.17
21,GTATACACGTGATAGT,0.07
22,CAGGGCACGTGGTGTT,-0.22
23,CTTGGCACGTGTTACG,0.04
24,AATTTCACGTGTGGAT,0.22
25,GGTTGCACGTGGAACG,0.1
26,TAAGTCACGTGAGTGT,0.34

row,Sequence,relative binding free energy [kcal/mol]
1,CTATGCACGTGGTTTG,-0.01
2,TATGTCACGTGTGAAT,0.2
3,GAGGGCACGTGTAAAT,0.26
4,TTTGGCACGTGGAGCA,-0.1
5,TGTGTCACGTGAAAGC,0.33
6,TGAAACACGTGAATGG,0.36
7,CTTTTCACGTGAGTGT,0.37
8,ATTGGCACGTGAATAG,-0.02
9,CATGTCACGTGGTTCT,0.17
10,AGTGTCACGTGATAAG,0.23
11,TTTATCACGTGAATGC,0.32
12,AAGTCCACGTGGGCGG,-0.03
13,AGGGACACGTGTAAAG,0.28
14,CGGGTCACGTGTGCTT,0.2
15,TGTGGCACGTGGTGCT,-0.14
16,ATGTTCACGTGAGGTC,0.22
17,GAGATCACGTGGTTTT,0.14
18,GTTATCACGTGGATCT,0.1
19,AATGTCACGTGAAGAG,0.23
20,AACTGCACGTGGGTTG,-0.18
21,TTGCGCACGTGATTTG,-0.07
22,GTTAACACGTGTTGGC,0.22
23,GTTATCACGTGAGATT,0.43
24,CGCTTCACGTGGGGTG,0.15
25,CATGGCACGTGCTTTG,-0.06
26,TAAAGCACGTGGGATG,-0.25

row,Sequence,relative binding free energy [kcal/mol]
1,GGGGACACGTGGGTAG,-0.05
2,CGTAGCACGTGGCGGA,-0.13
3,GAGTGCACGTGGAGAG,-0.03
4,GTCTTCACGTGTGTTG,0.3
5,ATTGACACGTGCGTGT,-0.1
6,CTGTTCACGTGTGTAT,0.38
7,TTTGCCACGTGCAAGG,-0.09
8,ATTTTCACGTGTGTTC,0.29
9,TTTTGCACGTGGCCTG,-0.14
10,GATATCACGTGGTTAA,0.14
11,GATTTCACGTGGTTGC,0.38
12,TTGGACACGTGTTATA,0.04
13,TTGGACACGTGATGCT,0.11
14,TCTTTCACGTGGGGTT,0.18
15,TATTTCACGTGAGCTG,0.45
16,CTTAGCACGTGGGGAA,-0.18
17,ATTGCCACGTGGGTGG,-0.1
18,ATGGTCACGTGAGCGT,0.18
19,GGCTACACGTGGTGTG,0.09
20,TGGGTCACGTGAGAAG,0.33
21,TTTGTCACGTGCTGTG,0.02
22,TCTAACACGTGCGGGT,0.12
23,TGAGGCACGTGGATTC,-0.04
24,CGTGCCACGTGTTGTG,-0.06
25,ATAGGCACGTGATGGT,-0.04
26,TGTGTCACGTGTCGGC,0.13

row,Sequence,relative binding free energy [kcal/mol]
1,GTTTTCACGTGCGTGA,0.31
2,TGATTCACGTGTTTGA,0.28
3,GTTTACACGTGGTTCT,0.17
4,CGGTCCACGTGATGGG,0.03
5,AGGTACACGTGGTCTA,-0.07
6,TTATTCACGTGCAATG,0.18
7,TGTTTCACGTGACGTC,0.31
8,GTTGGCACGTGCAATT,-0.1
9,CTTTGCACGTGAGTGA,0.01
10,GAATGCACGTGTACGT,0.18
11,ATATACACGTGGGGCG,-0.23
12,TCTTACACGTGATTGT,0.14
13,GTCGGCACGTGATGAG,0.02
14,TAGGGCACGTGTGTTA,-0.01
15,TATTACACGTGGTATG,0
16,TGGCGCACGTGGGAGG,-0.1
17,TGGGGCACGTGTGTGG,-0.04
18,TGAGCCACGTGGGAGA,-0.02
19,TTGGCCACGTGGTTTC,-0.09
20,CAGGACACGTGGTGTA,-0.02
21,GTATGCACGTGATAAG,0.23
22,ATAGCCACGTGTGGTT,-0.05
23,TAGCTCACGTGGGGAT,0.1
24,GTATTCACGTGTTGGC,0.34
25,GAGGTCACGTGGATAT,0.15
26,ATGCACACGTGAGGTG,0.13

row,Sequence,relative binding free energy [kcal/mol]
1,TGTTTCACGTGGTTTA,0.2
2,TAGGGCACGTGGGCTT,-0.23
3,TATGTCACGTGCGTGT,0.03
4,GAACGCACGTGGGTGT,-0.25
5,GGAAACACGTGTTGTG,-0.12
6,AGAAACACGTGTGAGG,-0.05
7,TTAGTCACGTGTAAGT,0.27
8,CGGTACACGTGTGCTG,0.05
9,ACAGTCACGTGGTAAG,0.12
10,ACTGTCACGTGAAGGG,0.35
11,TAAATCACGTGATTGT,0.35
12,AAGGCCACGTGGGGGA,-0.3
13,TTAGGCACGTGTAGAT,0.09
14,CTAAGCACGTGAGGGT,0.24
15,GATAGCACGTGGGAGG,-0.1
16,TTCAGCACGTGTCGTT,0.04
17,TTTTGCACGTGAGTAA,0.18
18,TGACTCACGTGTTCGG,0.21
19,TATGACACGTGAGTGT,0.12
20,ATTAGCACGTGGGAGT,-0.11
21,GGAGCCACGTGGGTGA,-0.15
22,GGTGGCACGTGTCGTG,-0.08
